In publication PMC9616699, “CVID-Associated B Cell Activating Factor Receptor Variants Change Receptor Oligomerization, Ligand Binding, and Signaling Responses” (Journal of Clinical Immunology, 2022):

B1: BAFFR P21R-GFP fusion protein (receptor, human)
chain: [about 80 residues with changes not given here]FGAPALLGLALVLALVLVGLVSWRRRQRRLRGASSAEAPDGDKDAPEPLDKVIILSPGISDATAPAWPPPGEDPGTTPPGHSVPVPATELGSTELVTTKTAGPEQQ
notes: BAFFR, natural variant P21R; source: DG-75 BAFFR KO cells, lentiviral gene transfer, on or in cells; not shown: GFP, C-terminal, kept
B2: BAFFR A52T-GFP fusion protein (receptor, human)
chain: [about 80 residues with changes not given here]FGAPALLGLALVLALVLVGLVSWRRRQRRLRGASSAEAPDGDKDAPEPLDKVIILSPGISDATAPAWPPPGEDPGTTPPGHSVPVPATELGSTELVTTKTAGPEQQ
notes: BAFFR, natural variant A52T; source: DG-75 BAFFR KO cells, lentiviral gene transfer, on or in cells; not shown: GFP, C-terminal, kept
B3: BAFFR G64V-GFP fusion protein (receptor, human)
chain: [about 80 residues with changes not given here]FGAPALLGLALVLALVLVGLVSWRRRQRRLRGASSAEAPDGDKDAPEPLDKVIILSPGISDATAPAWPPPGEDPGTTPPGHSVPVPATELGSTELVTTKTAGPEQQ
notes: BAFFR, natural variant G64V; source: DG-75 BAFFR KO cells, lentiviral gene transfer, on or in cells; not shown: GFP, C-terminal, kept
B4: BAFFR DUP92-95-GFP fusion protein (receptor, human)
chain: [about 80 residues not given here]FGAPALLGLALVLALVLALVLVGLVSWRRRQRRLRGASSAEAPDGDKDAPEPLDKVIILSPGISDATAPAWPPPGEDPGTTPPGHSVPVPATELGSTELVTTKTAGPEQQ
notes: BAFFR, natural variant with a duplication of four residues in the TM region, printed as LALV from position 92 to 95; both readings give the same product; source: DG-75 BAFFR KO cells, lentiviral gene transfer, on or in cells; not shown: GFP, C-terminal, kept

Target: T1, CD79B-RFP fusion protein (UniProt P40259 29-229)
T1 construct: B cell antigen receptor component CD79B; source: DG-75 BAFFR KO cells, lentiviral transduction, in cells
T1 sequence (looked up): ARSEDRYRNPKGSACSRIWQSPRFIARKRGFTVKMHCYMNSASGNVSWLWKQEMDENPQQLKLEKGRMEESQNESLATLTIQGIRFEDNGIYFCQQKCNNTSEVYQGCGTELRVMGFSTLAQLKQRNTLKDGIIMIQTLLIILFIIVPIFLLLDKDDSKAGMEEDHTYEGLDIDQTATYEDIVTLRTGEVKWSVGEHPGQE
Experiment: FRET or BRET; FRET from GFP to RFP read by flow cytometry (percent FRET+ cells) in DG-75 BAFFR KO cells co-expressing WT or variant BAFFR-GFP and CD79B-RFP; without ligand or 1 h after adding 100 ng/ml BAFF
Conditions: partners not purified

Row | Binder | percent FRET+ cells, without ligand
1 | B1 | 18%
2 | B2 | 17%
3 | B3 | 14%
4 | B4 | 14%
